The campaign covered roughly 200,000 compounds. About 4,500 (2.2%) were called active. Inconclusive means that the source gave no clear call. Such entries were picked first, then a sample of the others. The call rests on the fitted dose curve; in most records, active means well fitted inhibition curve with a large enough effect; inconclusive means small, poorly fitted or top-dose-only effect, or effect the other way; inactive means flat fitted curve, though single readings scatter. A potency beside an inconclusive call is a rough fit, not a confirmed value.
target: Cruzipain (Trypanosoma cruzi) (UniProt P25779); experiment: qHTS Assay for Promiscuous and Specific Inhibitors of Cruzain (without detergent); conditions: purified cruzain, Z-FR-AMC fluorescence, no detergent; further: nearly all actives have a fitted effect of over 40% in size;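 on max response, negative = inhibition: plate controls were enzyme without inhibitor for no effect and buffer without enzyme for full effect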
In short: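 Purified cruzain at 1.5 nM, pre-incubated 15 min with compound at room temperature in 100 mM sodium acetate pH 5.5, 5 mM DTT, 0.00005% Triton X-100. Reaction started with 2 uM Z-FR-AMC; AMC fluorescence increase over 60 s gives rate.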
Potency means the concentration at half of the fitted maximal effect; tags describe the fitted curve by direction and shape.

Sequence of UniProt P25779 (P25779 whole entry, looked up): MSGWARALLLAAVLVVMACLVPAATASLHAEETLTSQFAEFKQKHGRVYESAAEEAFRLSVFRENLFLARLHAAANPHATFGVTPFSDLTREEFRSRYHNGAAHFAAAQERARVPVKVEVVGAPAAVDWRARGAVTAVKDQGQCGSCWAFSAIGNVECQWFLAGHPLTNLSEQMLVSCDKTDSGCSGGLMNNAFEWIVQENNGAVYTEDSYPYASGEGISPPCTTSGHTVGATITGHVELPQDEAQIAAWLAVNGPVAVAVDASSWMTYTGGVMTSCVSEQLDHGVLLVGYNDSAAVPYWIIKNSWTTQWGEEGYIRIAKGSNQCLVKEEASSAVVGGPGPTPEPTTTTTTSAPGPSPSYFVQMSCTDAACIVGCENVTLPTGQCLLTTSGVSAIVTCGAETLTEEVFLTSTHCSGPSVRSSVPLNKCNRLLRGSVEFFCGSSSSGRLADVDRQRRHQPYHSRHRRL

SMILES | max response, negative = inhibition | Potency
Cc1ccc2nc(NC(=O)c3nc(SCc4ccccc4C)ncc3Cl)sc2c1 | inactive: 4.14% | –
CCn1c2ccccc2c2cc(NC(=O)CSc3nnc(-c4cccc(OC)c4)n3N)ccc21 | – | inconclusive: 31.6 µM [inhibitor, single point]
CN(Cc1ccccc1)C(=O)C1CCC(CNS(=O)(=O)c2ccc3c(c2)CCCC(=O)N3)CC1 (stereo not drawn) | – | inconclusive: 39.8 µM [activator, single point]
COc1cc(NC(=O)c2cc(Cl)ccc2Cl)ccc1-c1cc2ccccc2oc1=O | – | active: 20 µM
O=C(Nc1nnc(COc2ccc(F)cc2)s1)c1cccs1 | – | active: 25.1 µM
Nc1ccc2nc(-c3ccc(O)cc3)sc2c1 | – | inconclusive: 31.6 µM [activator, single point]
S=C1Nc2cc(Cl)ccc2Sc2ccccc21 | – | inconclusive: 31.6 µM [inhibitor, single point]
COCCNC(=O)c1cccc(Nc2nc(-c3ccccc3)c3cc(Cl)ccc3n2)c1 | – | inconclusive: 25.1 µM [activator, single point]
COC(=O)C1C(=O)C2=C(CC1C)NC(C)=C(C(=O)OCc1ccc(OC)cc1)C2c1ccc(C)o1 (stereo not drawn) | – | inconclusive: 39.8 µM [activator, single point]
N=c1c(S(=O)(=O)c2ccc(Cl)cc2)cc2c(=O)n3ccccc3nc2n1CCN1CCOCC1 | – | inconclusive: 39.8 µM [activator, single point]
Cc1ccc(C)c(S(=O)(=O)Nc2ccccc2C(=O)Nc2ccc(S(=O)(=O)Nc3ncccn3)cc2)c1 | – | inconclusive: 39.8 µM [activator, single point]
CCn1ccc2cc(S(=O)(=O)N3CCC(C(=O)NCCc4ccccc4)CC3)ccc21 | inactive: 1.53% | –
CC(=O)C1=C(c2ccc(Br)cc2)N(C(C)=O)n2c(nnc2C2CCCCC2)S1 | inactive: -4.97% | –
CCN(CC)S(=O)(=O)c1ccc2[nH]cc(C(=O)NCCc3ccccc3)c(=O)c2c1 | – | inconclusive: 39.8 µM [activator, single point]
COc1cccc2cc(-c3nc(-c4cccs4)cs3)c(=O)oc12 | – | inconclusive: 39.8 µM [inhibitor, single point]
O=C(Nc1ccccc1Cl)C1C2CCC3C(CCC21)C3(Cl)Cl (stereo not drawn) | – | inconclusive: 39.8 µM [inhibitor, single point]
Cc1cc(C)c(NC(=O)CCCn2c(C)c3cnn(-c4ccccc4)c(=O)c3c2C)c(C)c1 | – | inconclusive: 39.8 µM [activator, single point]
CC1CCN(CC(=O)N2c3ccccc3Sc3cc4ccccc4cc32)CC1 | inactive: 2.57% | –

From PubChem BioAssay AID1476 (National Center for Advancing Translational Sciences (NCATS), 2009)
